Experimental data published in a collection of fitness landscapes (doi:10.1016/j.celrep.2020.107928).
The full ranking holds about 81,000 sequences; the median of “one-hybrid fitness for binding parS DNA” is about -0.17, and the highest 2% start at about 0.51. The list shows a part of the results.

B1: Caulobacter ParB omega fusion; a variant is named by its letters at X, in order, B8GW30 (parent)
chain: MESVVVGEPGMSEGRRGLGRGLSALLGEVDAAPAQAPGEQLGGSREAPIEILQRNPDQPRRTFREEDLEDLSNSIREKGVLQPILVRPSPDTAGEYQIVAGERAWRAAQRAGLKTVPIMVRELDDLAVLEIGIIENVQRADLNVLEEALSYKVLMEKFERTQENIAQTIGKSXSHVANXMRLLXLPDEVQSYLVSGELTAXHARAIAAAADPVALAKQIIEGGLSVRETEALARKAPNLSAGKSKGGRPPRVKDTDTQALESDLSSVLGLDVSIDHRGSTGTLTITYATLEQLDDLCNRLTRGI

Variants of: B1
Experiment: one-hybrid fitness for binding parS DNA (scaled: cognate 1, non-cognate 0); higher = stronger binding
Details: with parS DNA site
How it was run: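 Fitness here means the log change in variant-to-wild-type read ratio between plasmids sequenced before and after selection. That scale was set so cognate equals 1 and non-cognate equals 0. The selection was a bacterial one-hybrid screen of Caulobacter ParB libraries, four specificity codons randomised, in E. coli USO carrying a HIS3 reporter with the site 19 bp from the promoter, grown 48 hours at 37°C on M9-minus-histidine with 0.1 mM IPTG and 5 mM 3-AT.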

| Variant | one-hybrid fitness for binding parS DNA |
| --- | --- |
| CQHG | ≤ 0.2 |
| ITFK | ≤ 0.2 |
| KYND | ≤ 0.2 |
| EHPQ | ≤ 0.2 |
| LQPK | ≤ 0.2 |
| DRRD | ≤ 0.2 |
| SRVQ | ≤ 0.2 |
| AVIG | ≤ 0.2 |
| LDDV | ≤ 0.2 |
| LPPR | ≤ 0.2 |
| TTGM | ≤ 0.2 |
| RNCW | ≤ 0.2 |
| LRDA | ≤ 0.2 |
| SAAC | ≤ 0.2 |
| QELL | ≤ 0.2 |
| TILS | ≤ 0.2 |
| AIPY | ≤ 0.2 |
| HVKK | ≤ 0.2 |
| AYPG | ≤ 0.2 |
| NTWR | ≤ 0.2 |
| SHIV | ≤ 0.2 |

| Variant | one-hybrid fitness for binding parS DNA |
| --- | --- |
| YHGP | ≤ 0.2 |
| EMAW | ≤ 0.2 |
| VAQG | ≤ 0.2 |
| LQRT | ≤ 0.2 |
| RPDG | ≤ 0.2 |
| HNEG | ≤ 0.2 |
| IVGL | ≤ 0.2 |
| VMYD | ≤ 0.2 |
| PDAS | ≤ 0.2 |
| LNCG | ≤ 0.2 |
| KHRG | ≤ 0.2 |
| NWRL | ≤ 0.2 |
| PGMN | ≤ 0.2 |
| RPMD | ≤ 0.2 |
| ESLD | ≤ 0.2 |
| SGNS | ≤ 0.2 |
| MQNP | ≤ 0.2 |
| RLGI | ≤ 0.2 |
| ARCE | ≤ 0.2 |
| TPNA | ≤ 0.2 |
| CRCK | ≤ 0.2 |

| Variant | one-hybrid fitness for binding parS DNA |
| --- | --- |
| NNPG | ≤ 0.2 |
| CASG | ≤ 0.2 |
| ARPW | ≤ 0.2 |
| ACHS | ≤ 0.2 |
| QPCR | ≤ 0.2 |
| SVQS | ≤ 0.2 |
| QAEN | ≤ 0.2 |
| RTTH | 0.232 |
| MTVR | ≤ 0.2 |
| WAEV | ≤ 0.2 |
| YSKC | ≤ 0.2 |
| MNSV | ≤ 0.2 |
| GAEW | ≤ 0.2 |
| PRQI | ≤ 0.2 |
| TYVK | ≤ 0.2 |
| PHHK | ≤ 0.2 |
| APVT | ≤ 0.2 |
| GVYI | ≤ 0.2 |
| HTNA | ≤ 0.2 |
| YSEM | ≤ 0.2 |
| QMCP | ≤ 0.2 |

| Variant | one-hybrid fitness for binding parS DNA |
| --- | --- |
| IPMT | ≤ 0.2 |
| IYHS | ≤ 0.2 |
| QNTY | ≤ 0.2 |
| RAWM | 0.35 |
| FLWG | ≤ 0.2 |
| RSSL | ≤ 0.2 |
| LWTR | ≤ 0.2 |
| EPVN | ≤ 0.2 |
| HTSL | ≤ 0.2 |
| RWWR | ≤ 0.2 |
| RDIT | ≤ 0.2 |
| NSFV | ≤ 0.2 |
| NPKI | ≤ 0.2 |
| KRGN | ≤ 0.2 |
| DPIT | ≤ 0.2 |
| KILS | ≤ 0.2 |
| TQCK | ≤ 0.2 |
| ACDR | ≤ 0.2 |
| STQW | ≤ 0.2 |
| QGLS | ≤ 0.2 |
| VQRR | ≤ 0.2 |
